According to PubChem BioAssay AID434955 (Southern Research Specialized Biocontainment Screening …, 2010):
The other results are listed elsewhere or left out. Further columns of the screen follow, without active or inactive calls. The list favours compounds with an active or inconclusive main result.

Assay: beta-lactam sensitization of Mtb H37Rv, H37Rv (AID 434955);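 also: growth measured after seven days incubation then overnight dye step; 0% = bacteria only wells and 100% = bacteria with antibiotic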
Conditions: M. tuberculosis H37Rv growth with meropenem, percent inhibition; measured here: primary screen without meropenem; at 25 µM

SMILES | inhibition
CC(C)c1ccccc1NC(=O)Nc1ccc2c(c1)OCO2 | 1.19%
CCOCCCNC(=O)CC1Oc2ccc(C)cc2NC1=O (stereo unspecified) | 0.75%
COc1cccc(-c2cc(C(=O)N3CCN(Cc4ccc5c(c4)OCO5)CC3)on2)c1 | 3.25%
COc1ccc(C2=NOC(C(=O)NC3CCCCC3)C2)cc1OC (stereo unspecified) | -3.13%
COc1ccc(-c2c(-c3ccc(O)cc3O)n[nH]c2C)cc1OC | -2.43%
CC(C(=O)c1ccccc1)[n+]1cccc(Br)c1 (stereo unspecified) | 7.69%
COc1cc(NC(=S)NC(=O)CCc2ccccc2)cc(OC)c1 | 11.2%
C[C@H](NC(=O)c1[nH]cnc1C(=O)Nc1cccc(Cl)c1)c1ccccc1 | 66.4%
O=C(CN1C(=O)c2cccnc2Oc2ccc(Cl)cc21)NCCC1=CCCCC1 | 6.69%
Cc1ccc(S(=O)(=O)Nc2ccc(S(=O)(=O)Nc3nccs3)cc2)c([N+](=O)[O-])c1 | 94.6%
CN1CCOCCOCCN(C)C1=O | 1.83%
Cc1ccc(C2=NN(C(=O)CSc3nccn3C)C(c3ccco3)C2)cc1 (stereo unspecified) | 0.5%
N#Cc1c(-c2ccncc2)cc(-c2ccc(F)cc2)nc1N | -3.14%
CSCCC(NC(=O)c1cccc(S(=O)(=O)N2CCOCC2)c1)C(=O)Nc1cccc(C)c1 (stereo unspecified) | -7.83%
CCOC(=O)N1CCc2c(sc(NC(=O)CCS(=O)(=O)c3ccccc3)c2C(N)=O)C1 | 6.23%
O=C(O)CCCCNS(=O)(=O)c1ccc(Cl)c(C(F)(F)F)c1 | -5.46%

SMILES | inhibition
COc1ccc(/C=N/NC(=O)Cn2cnc3ccccc3c2=O)cc1 | -0.13%
CCN1CCc2c(sc(NC(=O)c3ccc(S(=O)(=O)N4CCCC4)cc3)c2C(=O)NC)C1 | 2.94%
O=C1c2oc3ccccc3c(=O)c2C(c2cccc(O)c2)N1CCCN1CCOCC1 (stereo unspecified) | 0.52%
CC(C)c1ccc(CN2CC(C(=O)O)CC2=O)cc1 (stereo unspecified) | -2.66%
CSc1ccc(-c2nnn(CC(=O)NCc3ccccc3)n2)cc1 | 35.1%
Cc1ccc2[nH]c(=O)c3cc(C(=O)NCCN4CCN(C)CC4)sc3c2c1 | 1.21%
O=CN/N=C/c1c(O)ccc2ccccc12 | -0.76%
COCCNC(=O)COc1ccc(Nc2ccccc2)cc1 | -12.2%
O=C(N1CCOCC1)N1CCN(S(=O)(=O)c2ccccc2)C1 | -0.17%
O=C(Cc1ccc(Cl)cc1)NNC(=O)C1CC=CCC1C(=O)O (stereo unspecified) | 0.67%
CCC1Oc2ccccc2N(CC(=O)Nc2ccc3c(c2)OCCO3)C1=O (stereo unspecified) | 1.36%
CCCN1CCN(C(=O)c2cc(COc3ccc(F)cc3F)on2)CC1 | -6.75%
Cc1ccc(NC2CCCN(C(=O)CCN3CCCCO3)C2)cc1C (stereo unspecified) | 60.6%
Cc1cc(C)cc(OCCNC(=O)C2CCN(S(=O)(=O)c3ccccc3)CC2)c1 | -11.9%
Cc1cc(C(=O)Nc2nnc(C3CC3)s2)c(C)s1 | 86.3%
